Source: publication PMC7819943, “Rice protein-binding microarrays: a tool to detect cis-acting elements near promoter regions in rice”
This is one part of the list.

molecular target: T1, OsWOX13 (Oryza sativa, UniProt Q5QMM3 1-267); test: protein-binding microarray (RPBM); PBS, 2% BSA, 51.3 ng/ul salmon testes DNA, 50 uM zinc acetate, 200 nM TF, 25 C, 1 h; high values mean tight binding; settings: protein: recombinant; tags: N-terminal polyhistidine and DsRed monomer fusion (pET32a); label: CyDye5-dUTP incorporated in the synthesized complementary strand; 3' TTTTT single-stranded linker to array surface; dsDNA, one strand shown
T1 sequence: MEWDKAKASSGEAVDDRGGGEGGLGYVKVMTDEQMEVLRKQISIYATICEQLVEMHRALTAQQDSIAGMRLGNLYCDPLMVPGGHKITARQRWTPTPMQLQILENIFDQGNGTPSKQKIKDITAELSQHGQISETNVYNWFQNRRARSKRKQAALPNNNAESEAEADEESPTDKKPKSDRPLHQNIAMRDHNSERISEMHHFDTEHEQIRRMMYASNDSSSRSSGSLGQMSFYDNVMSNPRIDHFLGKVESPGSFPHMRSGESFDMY
Outline: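 Transcription factors were each fused at the N-terminus to a polyhistidine tag plus DsRed and expressed in E. coli BL21-CodonPlus before Ni–NTA purification. Binding to a double-stranded custom Agilent array was carried out with 200 nM protein at 25 °C for 1 h in PBS, 2% BSA, salmon testes DNA and 50 µM zinc acetate. The binding signal is per-feature fluorescence intensity, in arbitrary units, on an Axon 4000B scanner.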

Sequence | binding signal
TCCTATAGAAAATTTTCCTATTTGACCCTTTGATTCAAATCGGAGTCACCTAGTGCAG | 3540 fluorescence intensity (a.u.)
TTTTGATTTGGGAAGGGAGGTGCATGGGTATAGCATAAAGCGGAGTCACCTAGTGCAG | 5280 fluorescence intensity (a.u.)
CGGTGGGATTGGTTTAACGTGGGTGCTAATGGGGAAGCTACGGAGTCACCTAGTGCAG | 15300 fluorescence intensity (a.u.)
TGCTTGGAATCAATTACCTGCTCACGCAAAGAGGAGAGGCCGGAGTCACCTAGTGCAG | 4220 fluorescence intensity (a.u.)
TTGGATTAATTGCCAAGGAATTGTGGAGTCATGTAGTAGTCGGAGTCACCTAGTGCAG | 42200 fluorescence intensity (a.u.)
TAAATAGAATTTATAATTTCTTCTAATAAAACGAATAGTTCGGAGTCACCTAGTGCAG | 5240 fluorescence intensity (a.u.)
GTAAGTTTCATAAATTACACTGTAATTTACAAGAAAACACCGGAGTCACCTAGTGCAG | 11100 fluorescence intensity (a.u.)
ATTGATTTCTCAGTCCATGGGCCATGAGTATGTTCTGGAGCGGAGTCACCTAGTGCAG | 10900 fluorescence intensity (a.u.)
TACTCATGATTACGTAAATAATGAGAGACGCTATTTACTCCGGAGTCACCTAGTGCAG | 16500 fluorescence intensity (a.u.)
TATATGTCTGATTGCTATTCCAGCCTCTAGCAGCACAGAACGGAGTCACCTAGTGCAG | 15500 fluorescence intensity (a.u.)
ACTTAAATTAAACACTAAGGATGCATTATTTTCAACTCATCGGAGTCACCTAGTGCAG | 3780 fluorescence intensity (a.u.)
TCGGATGAGTGGCTTATAGATTTGAATTTGATGGTCTGCTCGGAGTCACCTAGTGCAG | 3620 fluorescence intensity (a.u.)
TGGGTGATTGATTAGTACTACTGCTGCATCTGCACTGCATCGGAGTCACCTAGTGCAG | 38400 fluorescence intensity (a.u.)
TTTGACGGTAAATTGACCATTCTTATGGAGCGACCATACACGGAGTCACCTAGTGCAG | 28000 fluorescence intensity (a.u.)
AAGAAATGCGAATAATTAACTGGCTAAACTGTTTGGGTGGCGGAGTCACCTAGTGCAG | 21900 fluorescence intensity (a.u.)
TGAAAATGATTTGGGATGGCATTTCAGCGGGTTGGGCTCACGGAGTCACCTAGTGCAG | 22000 fluorescence intensity (a.u.)
ACTGCCCCTGATTAATTCTAATTATTTACCTGAATTGCCACGGAGTCACCTAGTGCAG | 32100 fluorescence intensity (a.u.)
CATAATATTGATTGATGCGTGTGAAACATGAACAAGCTTCCGGAGTCACCTAGTGCAG | 47900 fluorescence intensity (a.u.)
GTCACTAGCTTGATTAATGTGGCACTTTCAGATGCTGCCTCGGAGTCACCTAGTGCAG | 4950 fluorescence intensity (a.u.)
TTATGTTGGGAAGATTGATAGGGAGTGATCGCCTCACTGGCGGAGTCACCTAGTGCAG | 12900 fluorescence intensity (a.u.)
TATGTATGCATTGATTGCTAAACATTTTCACATGTGCATTCGGAGTCACCTAGTGCAG | 14700 fluorescence intensity (a.u.)

Sequence | binding signal
CGGAATTGCAACAATAATCATAGCAGCCGCGCGAAACGACCGGAGTCACCTAGTGCAG | 5200 fluorescence intensity (a.u.)
GATAATTTTCTCCGTTATCATTACATCAAACTGTTAGGTCCGGAGTCACCTAGTGCAG | 21000 fluorescence intensity (a.u.)
TGGAACTTAATTTGAAAACAGAGGGTGTATTCTGCAACTCCGGAGTCACCTAGTGCAG | 5070 fluorescence intensity (a.u.)
AGCAATTATTGTATGAATTGGCTATTACATTAGCTATAAACGGAGTCACCTAGTGCAG | 6390 fluorescence intensity (a.u.)
CCAAGGGGTGCTAAATGGGGCTAATTTTGTGTGGGGACCACGGAGTCACCTAGTGCAG | 3500 fluorescence intensity (a.u.)
TTAATTGATTCCATGAAGGTATAATGATACTTTTATGGTACGGAGTCACCTAGTGCAG | 65000 fluorescence intensity (a.u.)
GCACGCTCAATTACCATACACATCAGCTAACAAGTAATAACGGAGTCACCTAGTGCAG | 5130 fluorescence intensity (a.u.)
TCACTGACGAACAATCTGATTCGCGTACACATGCTGGCCCCGGAGTCACCTAGTGCAG | 6520 fluorescence intensity (a.u.)
AGTAAATAATTAAACTAGACTTAACCCTTCCTTCCAAATTCGGAGTCACCTAGTGCAG | 6310 fluorescence intensity (a.u.)
TAAACTAATTTGGTGGTCGTGATTCCTACCACTTTTATTTCGGAGTCACCTAGTGCAG | 12700 fluorescence intensity (a.u.)
AGGGAGGAAGTAATTGATGTGGAAGAAAAGATAACTCATTCGGAGTCACCTAGTGCAG | 4200 fluorescence intensity (a.u.)
AGTAGATTGAAAATGTTTCACTCGTTTAAATCGGGTGTTGCGGAGTCACCTAGTGCAG | 49000 fluorescence intensity (a.u.)
AGTAATTGACATATAATAAATAATCATCTAAGACGACATACGGAGTCACCTAGTGCAG | 37500 fluorescence intensity (a.u.)
AAGCAAAACTGATTCATTAGATTGAATCTGTGAATTCCCTCGGAGTCACCTAGTGCAG | 21500 fluorescence intensity (a.u.)
ATCAAATGAGACAATTATTGATAAGGAGACACTCCATATTCGGAGTCACCTAGTGCAG | 20200 fluorescence intensity (a.u.)
AATATGCAGATTAGCAAGTTAACGACAAAATGGAGATAACCGGAGTCACCTAGTGCAG | 4420 fluorescence intensity (a.u.)
TGGCTTGATTGGCTTGACTCACATGGCCTTGTGGCCTCTCCGGAGTCACCTAGTGCAG | 20000 fluorescence intensity (a.u.)
GGGGCGTGAATTAGATTTAACCTATATATCGGGGAGTCTACGGAGTCACCTAGTGCAG | 4220 fluorescence intensity (a.u.)
CAATAATTCCCTTAAAATAGAATTATGTAGCCTATTGCTACGGAGTCACCTAGTGCAG | 4220 fluorescence intensity (a.u.)
ATTTACATAATTATCATTTATTTTGTTATGAATTGTTTTACGGAGTCACCTAGTGCAG | 15200 fluorescence intensity (a.u.)
TGAAAATTTTAATTTTGGTAGGTGCCCCTTTAGGAGGCCCCGGAGTCACCTAGTGCAG | 6660 fluorescence intensity (a.u.)
